Data published in paper PMC4336329 (PLoS ONE, 2015).
Among all 310,000 compounds or so, about 14,000 (4.5%) showed an effect of 50% or more. The effect is printed as a negative number. Some of the results follow.

target: human ether-à-go-go-related gene (hERG) potassium channel (human, UniProt Q12809); assay: primary screen, population patch clamp on CHO cells stably expressing hERG
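Further: peak tail current of the secondary pulse compared with the same well before compound.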

human ether-à-go-go-related gene (hERG) potassium channel, sequence (Q12809 whole entry, looked up): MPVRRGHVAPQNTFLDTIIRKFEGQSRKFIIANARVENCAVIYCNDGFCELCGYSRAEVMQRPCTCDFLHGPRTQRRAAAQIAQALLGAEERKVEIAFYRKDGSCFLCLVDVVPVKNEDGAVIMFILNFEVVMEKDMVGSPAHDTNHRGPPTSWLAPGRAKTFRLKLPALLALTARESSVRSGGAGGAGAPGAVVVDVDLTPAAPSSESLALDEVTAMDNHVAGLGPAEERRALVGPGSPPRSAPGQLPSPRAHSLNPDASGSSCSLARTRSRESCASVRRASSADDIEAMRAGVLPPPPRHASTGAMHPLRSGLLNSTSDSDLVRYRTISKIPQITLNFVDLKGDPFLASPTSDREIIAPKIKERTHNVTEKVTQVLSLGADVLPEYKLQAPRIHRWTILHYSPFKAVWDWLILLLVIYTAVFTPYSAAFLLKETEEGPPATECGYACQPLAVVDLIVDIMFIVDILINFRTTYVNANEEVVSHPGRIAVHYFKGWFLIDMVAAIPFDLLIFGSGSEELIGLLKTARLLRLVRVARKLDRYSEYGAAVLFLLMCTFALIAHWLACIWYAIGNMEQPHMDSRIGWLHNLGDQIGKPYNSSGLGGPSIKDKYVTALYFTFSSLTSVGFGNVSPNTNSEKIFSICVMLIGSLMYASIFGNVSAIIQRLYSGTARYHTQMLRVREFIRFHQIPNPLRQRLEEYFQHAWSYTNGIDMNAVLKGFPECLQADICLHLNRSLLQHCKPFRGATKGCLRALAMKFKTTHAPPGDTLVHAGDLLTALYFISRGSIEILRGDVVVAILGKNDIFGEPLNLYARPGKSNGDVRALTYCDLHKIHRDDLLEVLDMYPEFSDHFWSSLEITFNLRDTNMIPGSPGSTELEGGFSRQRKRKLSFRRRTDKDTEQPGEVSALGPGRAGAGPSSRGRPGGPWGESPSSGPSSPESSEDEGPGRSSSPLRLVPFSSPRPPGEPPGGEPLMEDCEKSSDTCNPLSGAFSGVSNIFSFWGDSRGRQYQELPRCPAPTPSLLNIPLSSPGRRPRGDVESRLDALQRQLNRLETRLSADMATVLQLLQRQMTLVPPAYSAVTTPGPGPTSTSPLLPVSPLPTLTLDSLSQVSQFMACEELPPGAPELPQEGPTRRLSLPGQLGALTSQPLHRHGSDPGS

Row | Compound | hERG current change (%, negative = inhibition) at 10uM
1 | COc1ccc(CN(C)C(=O)c2ccc3ccccc3n2)cc1F | -24%
2 | O=C(c1ccccc1)c1ccc(OCC(O)CN2CCN(Cc3ccccc3)CC2)cc1 (stereo not shown) | -73.4%
3 | Cc1cc(NC(=O)c2c(Cl)cccc2Cl)no1 | 18.1%
4 | COc1ccc(CCNC(=O)c2nnn(-c3cccc(C)c3)c2N)cc1OC | -38.8%
5 | COc1ccc(-c2noc(N3CCC(C(=O)Nc4ccc(OC)c(OC)c4)CC3)n2)cc1 | -0.895%
6 | O=C(CSc1nc(-c2ccccc2)cc(=O)[nH]1)Nc1ccccc1F | 18.2%
7 | Cc1cc(=O)[nH]c(SCC(=O)Nc2nc3c(s2)CCCC3)n1 | 0.634%
8 | O=C(O)CN1C(=O)/C(=C\c2cccc(OCc3ccccc3)c2)SC1=S | 16.2%
9 | Cl.O=C(CCN1CCc2ccccc2CC1)c1ccc2c(c1)OCCO2 | -60.6%
10 | O=S(=O)(/C=C/c1ccccc1)N1CCN(c2cccc(Cl)c2)CC1 | 3.17%
11 | O=C(CN(C(=O)c1csnn1)c1ccccc1F)NC1CCCCC1 | -9.52%
12 | O/N=C/CCn1c(=S)sc2ccccc21 | -6.55%
13 | Cc1ccccc1N1C(=O)N(c2cccc(C(F)(F)F)c2)C2CS(=O)(=O)CC21 (stereo not shown) | -7.21%
14 | Cc1ccc(S(=O)(=O)NC(=O)Nc2ccc(C)cc2C)cc1 | 13.6%
15 | O=C(NNC(=S)NCC1CCCO1)c1cccc(S(=O)(=O)N2CCOCC2)c1 (stereo not shown) | -15.2%
16 | CCOC(=O)c1nc(C)nc(Sc2n[nH]c(-c3cc(C(F)(F)F)cc(C(F)(F)F)c3)n2)c1C | -19.5%
17 | O=C(NCCOC(=O)c1c(F)cccc1Cl)c1c(F)cccc1Cl | 12.2%
18 | COCCCNC(=S)N/N=C/c1ccccc1O | 0.332%
19 | COc1ccc(S(=O)(=O)N2CCC(C(N)=O)(N3CCCCC3)CC2)cc1OC | -3.86%
20 | COc1ccc(C2CC(=O)C=C(NCC3CCCO3)C2)cc1 (stereo not shown) | -9.1%
21 | Cc1ccc(NC(=O)C(C)N=C2NS(=O)(=O)c3ccccc32)cc1 (stereo not shown) | 13%
22 | CC1CCCCN1C(=O)CSc1nc(-c2ccccc2)cc(=O)[nH]1 (stereo not shown) | 1.27%

Row | Compound | hERG current change (%, negative = inhibition) at 10uM
23 | O=C(COc1ccc(Br)cc1)Nc1ccc(CN2CCOCC2)cc1 | -40.6%
24 | CC1(C(=O)N2CC3(CC(c4cccc(NC(=O)CC(c5ccccc5)c5ccccc5)c4)=NO3)C[C@@H]2C(N)=O)CC1 (stereo partly shown) | 4.05%
25 | COc1ccc(OC)c(C2=NOC(C(=O)N3CCCc4ccccc43)C2)c1 (stereo not shown) | -13.3%
26 | Cc1ccc(O)c(-c2cc(C(F)(F)C(F)F)[nH]n2)c1 | -9.91%
27 | COc1ccc(-n2ncc3c2CC(C)(C)CC3NC(=O)CCCN2CCCC2=O)cc1 (stereo not shown) | 4.49%
28 | COCCCNC(=O)c1ccc2c(c1)OCO2 | -9.98%
29 | CCn1c(SCC(=O)N(C)C2CCS(=O)(=O)C2)nnc1-c1cccs1 (stereo not shown) | 15.2%
30 | CCOc1ncccc1C(=O)OCC(=O)NC(=O)NC(C)C | 39.9%
31 | Cc1ccc(N(Cc2ccccc2)C(=O)c2ccc(F)cc2)cc1 | -3.14%
32 | CCC(C)c1ccc(C(C)NC(=S)NC2CCCCC2)cc1 (stereo not shown) | 23.6%
33 | COc1ccc(Nc2nnc(-c3ccc(C(N)=O)cc3)c3ccccc23)cc1 | -33.9%
34 | CCC(C)(C(=O)NC1CCCCC1)N(Cc1cccs1)C(=O)c1ccc(=O)[nH]c1 (stereo not shown) | 1.83%
35 | O=C(/C=C/NNC(=O)c1cccc(Br)c1)c1ccccc1 | 5.7%
36 | CC1CCN(c2ccc(NC(=S)NC(=O)c3ccc(-c4cccc([N+](=O)[O-])c4)o3)cc2)CC1 | 2.99%
37 | CN(C)c1ccc(N=Nc2ccccc2C(=O)OCC(=O)N2CCCC2)cc1 | -1.01%
38 | CCO/C=C/C(=O)N(C)CCC#N | -0.874%
39 | COc1cc(C(=O)c2ccccc2)c([N+](=O)[O-])cc1OC | -2.35%
40 | Cc1cccc2cc3c(NC(=O)C(C)(C)C)nn(CC(C)C)c3nc12 | 10.8%
41 | CCC(=O)c1ccccc1OCCCN1C(=O)NC(C)(C)C1=O | 0.00578%
42 | Cc1onc(-c2ccccc2)c1C(=O)Nc1nnc(COc2ccc(Cl)cc2)s1 | 10.5%
43 | CCN(CC)c1ccc(N)cc1 | 13.4%
44 | CCOC(=O)C1CCN(C(=O)c2ccc(N(C)S(C)(=O)=O)cc2)CC1 | 1.51%

Row | Compound | hERG current change (%, negative = inhibition) at 10uM
45 | CCOC(=O)c1[nH]c2ccc(C)cc2c1NC(=O)CN1CCCCC1 | -17.6%
46 | O=C(CSc1cccc(C(F)(F)F)c1)Nc1cc(S(=O)(=O)N2CCCC2)ccc1Cl | -5.28%
47 | COc1ccc(NC(=O)c2ccc(-n3c(C)ccc3C)cc2)c(OC)c1 | -24.3%
48 | COc1ccc(OC)c(S(=O)(=O)CC(=O)c2cc3ccc(OC)cc3oc2=O)c1 | 8.24%
49 | Cl.O=S(=O)(NCCN1CCOCC1)c1ccc(Cl)c(Cl)c1 | 0.4%
50 | COc1ccc2cc3cc(C(=O)Nc4ccc5c(c4)OCCO5)oc3nc2c1 | -2.07%
51 | CC1=NN(c2ccccc2)C(=O)C1c1ccccc1 (stereo not shown) | 4.26%
52 | CCNC(=O)CSc1nc(-c2ccc(F)cc2)cs1 | 21.2%
53 | Cc1ccc(C(=O)Nc2nc(-c3ccccn3)cs2)o1 | -40.4%
54 | O=C(COC(=O)CNC(=O)c1ccccc1F)NCCC1=CCCCC1 | 3.37%
55 | COc1ccc(C2SCC(C(=O)NCc3ccc(F)cc3)N2C(C)=O)cc1 (stereo not shown) | -20.2%
56 | COc1ccc(N2C(=O)C3C(C2=O)C3(c2ccccc2)c2ccccc2)cc1 (stereo not shown) | 0.0654%
57 | COc1cccc(C(=O)NC2CC(C)(C)Cc3c2cnn3-c2cccc(F)c2)c1OC (stereo not shown) | -52.3%
58 | CCOC(=O)C1CCN(C(=O)c2cc(S(=O)(=O)N3CCOCC3)ccc2C)CC1 | 1.3%
59 | O=S(=O)(c1cccs1)N1CN(Cc2ccc(F)cc2)c2nc3ccccc3nc21 | -5.12%
60 | Cc1nc(/N=C(\N)NC(=O)N2c3ccccc3Sc3ccccc32)nc2ccccc12 | 8.13%
61 | Cc1ccn(-c2ccc([N+](=O)[O-])cc2)n1 | 0.314%
62 | CC1(C)CC(=O)/C(=C(\O)CCCN2C(=O)c3ccccc3C2=O)C(=NCC(=O)O)C1 | 15.3%
63 | COc1cc([N+](=O)[O-])ccc1NC(=O)NCc1cccnc1 | -26.5%
64 | O=C(Nc1ccc2c(c1)CCCN2C(=O)c1cccs1)c1cccc(F)c1 | 10.3%
65 | O=C(Cn1cc(S(=O)(=O)Cc2cccc(F)c2)c2ccccc21)N1CCOCC1 | -7.62%
66 | O=C(COc1ccc2c(c1)OCO2)NC12CC3CC(CC(C3)C1)C2 | -15.5%

Row | Compound | hERG current change (%, negative = inhibition) at 10uM
67 | CCOC(=O)Cn1cc(/C=C/[N+](=O)[O-])c2ccccc21 | -3.66%
68 | O=C(C1Cc2ccccc2O1)N1CCCCC1 (stereo not shown) | -8.57%
69 | CC(Sc1nnc(C(C)Oc2ccccc2F)o1)C(=O)NCc1ccc2c(c1)OCO2 (stereo not shown) | -41.5%
70 | O=C(c1cc(-c2ccc(O)cc2)on1)N1CCOCC1 | -6.82%
71 | CCCCNC(=O)CC1N=C2c3ccccc3N=C(SCC(=O)Nc3ccc(OC)cc3)N2C1=O (stereo not shown) | -13.1%
72 | COc1cccc(CN(C)C(=O)c2cc(S(=O)(=O)N3CCCCCC3)ccc2OC)c1 | -39%
73 | COc1ccc(Cl)cc1NC(=O)NCCCl | 10.5%
74 | COc1ccc2ccccc2c1C1CC(=O)N2CN(C)CSC2=C1C#N (stereo not shown) | 12.7%
75 | CCOc1ccc(NC(=S)N(CCN2CCOCC2)Cc2cc3cc4c(cc3[nH]c2=O)OCCO4)cc1 | -5.12%
76 | O=C1CC(c2ccc(Cl)cc2)n2nc(N3C(=O)c4ccccc4C3=O)nc2N1 (stereo not shown) | -3.13%
77 | COc1ccc(/C=N/Nc2cc(C)nc(-n3nc(C)cc3C)n2)cc1 | -4.01%
78 | COc1ccccc1CC(=O)NNC(=O)c1ccco1 | 16%
79 | CCC(=O)N1CC(=O)Nc2ccc(F)cc2C1c1ccc(F)cc1 (stereo not shown) | 5.29%
80 | CCOC(=O)c1c(NC(=O)C[n+]2ccccc2)sc2c1CCCC2.[Cl-] | 14.2%
81 | Cc1ccc2cc3c(nc2c1)N(Cc1ccco1)CC3 | -3.13%
82 | O=[N+]([O-])c1ccc(O)c(Nc2c([N+](=O)[O-])ccc3nonc23)c1 | 16%
83 | CCC(CC)NC(=O)Cc1ccccc1OC | 9.6%
84 | Cn1c(=O)c2c(nc(N3CCCC3)n2CC(O)CO)n(C)c1=O (stereo not shown) | 3.09%
85 | CCN(CC)CCOC(=O)c1cc(Cl)c(N)cc1OC.Cl | 2.49%
86 | COc1ccc(C(CC(=O)c2ccc(C)cc2)Nc2ccc([N+](=O)[O-])cc2)cc1 (stereo not shown) | 10.9%
87 | O=[N+]([O-])c1ccc(NC(=S)NCC(c2cccnc2)N2CCOCC2)cc1 (stereo not shown) | -49.9%
88 | O=C1C2C3C=CC(C4CC34)C2C(=O)N1/N=C/c1cccs1 (stereo not shown) | 12.5%
